The supplement of paper PMC12217912
The other results are listed elsewhere or left out. Sequences were assembled here from the parent chain. Values near 0.05 are background.

B1: TEV protease; numbered along this chain (parent)
chain: MGESLFKGPRDYNPISSSICHLTNESDGHTTSLYGIGFGPFIITNKHLFRRNNGTLVVQSLHGVFKVKDTTTLQQHLVDGRDMIIIRMPKDFPPFPQKLKFREPQREERICLVTTNFQTKSMSSMVSDTSCTFPSGDGIFWKHWIQTKDGQCGSPLVSTRDGFIVGIHSASNFTNTNNYFTSVPKNFMELLTNQEAQQWVSGWRLNADSVLWGGHKVFMVKPEEPFQPVKEATQL
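Further: Bxb1 expression induced with 0.2% (w/v) L-rhamnose at OD600 near 0.5, cultures sampled hourly, flipped fraction per protease–substrate barcode pair counted by paired-end Illumina sequencing.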

Variants of: B1
Assay: raw area under fraction-flipped curve 0-4 h after induction (AUC4h, not background-subtracted), DNA-recorder readout of cleavage of the substrate (dimensionless); higher = more cleavage of the substrate by the protease variant
Conditions: temperature: 34 °C; time window: 0-4 h after rhamnose induction
For MGESLFKGPRDYNPISSSICHLTNESDGHTTSLYGIGFGPFIITNKHLFRRNNGTLVVQSLHGVFKVKDTTTLQQHLVDGRDMIIIRMPKDFPPFPQKLKFREPQREERICLVTTNFQTKSMSSMVSDTSCTFPSGDGIFWKHWIQTKDGQCGSPLVSTRDGFIVGIHSASNFTNTNNYFTSVPANFMELLTNQEAQQWVSGWRLNADSVLWGGHKVFMVKPEEPFQPVKEATQL [K185A], the “area with substrate ENLYEQS” value was 0.071, the “area with substrate ENLYGQS” value was 0.0924 and the “area with substrate ENLYHQS” value was 0.0625. The “area with substrate ENLYKQS” value was 0.0315, the “area with substrate ENLYLQS” value was 0.0971 and the “area with substrate ENLYMQS” value was 0.0746. For the same variant, the “area with substrate ENLYNQS” value was 0.0763, the “area with substrate ENLYPQS” value was 0.0651 and the “area with substrate ENLYQQS” value was 0.0522. The “area with substrate ENLYRQS” value was 0.0623, the “area with substrate ENLYSQS” value was 0.0752 and the “area with substrate ENLYVQS” value was 0.114. The “area with substrate ENLYWQS” value was 0.0609. With MGESLFKGPRDYNPISSSICHLTNESDGHTTSLYGIGFGPFIITNKHLFRRNNGTLVVQSLHGVFKVKDTTTLQQHLVDGRDMIIIRMPKDFPPFPQKLKFREPQREERICLVTTNFQTKSMSSMVSDTSCTFPSGDGIFWKHWIQTKDGQCGSPLVSTRDGFIVGIHSASNFTNTNNYFTSVPVNFMELLTNQEAQQWVSGWRLNADSVLWGGHKVFMVKPEEPFQPVKEATQL [K185V] the “area with substrate ENLYEQS” value was 0.0752, the “area with substrate ENLYGQS” value was 0.0599 and the “area with substrate ENLYHQS” value was 0.074. For the same variant, the “area with substrate ENLYIQS” value was 0.0923, the “area with substrate ENLYKQS” value was 0.0651 and the “area with substrate ENLYNQS” value was 0.0691. For the same variant, the “area with substrate ENLYPQS” value was 0.0587, the “area with substrate ENLYSQS” value was 0.0692 and the “area with substrate ENLYVQS” value was 0.117. The “area with substrate ENLYWQS” value was 0.0668 and the “area with substrate ENLYYQS” value was 0.0641. In the case of MGESLFKGPRDYNPISSSICHLTNESDGHTTSLYGIGFGPFIITNKHLFRRNNGTLVVQSLHGVFKVKDTTTLQQHLVDGRDMIIIRMPKDFPPFPQKLKFREPQREERICLVTTNFQTKSMSSMVSDTSCTFPSGDGIFWKHWIQTKDGQCGSPLVSTRDGFIVGIHSASNFTNTNNYFTSVPKTFMELLTNQEAQQWVSGWRLNADSVLWGGHKVFMVKPEEPFQPVKEATQL [N186T], the “area with substrate ENLYEQS” value is reported as 0.075, the “area with substrate ENLYGQS” value is reported as 0.0697 and the “area with substrate ENLYIQS” value is reported as 0.102. For the same variant, the “area with substrate ENLYKQS” value was 0.0703, the “area with substrate ENLYLQS” value was 0.136 and the “area with substrate ENLYNQS” value was 0.0631. The “area with substrate ENLYPQS” value was 0.081, the “area with substrate ENLYTQS” value was 0.0598 and the “area with substrate ENLYWQS” value was 0.0764. For MGESLFKGPRDYNPISSSICHLTNESDGHTTSLYGIGFGPFIITNKHLFRRNNGTLVVQSLHGVFKVKDTTTLQQHLVDGRDMIIIRMPKDFPPFPQKLKFREPQREERICLVTTNFQTKSMSSMVSDTSCTFPSGDGIFWKHWIQTKDGQCGSPLVSTRDGFIVGIHSASNFTNTNNYFTSVPKNFMELLTYQEAQQWVSGWRLNADSVLWGGHKVFMVKPEEPFQPVKEATQL [N193Y], the “area with substrate ENLYEQS” value was 0.0547, the “area with substrate ENLYGQS” value was 0.0769 and the “area with substrate ENLYHQS” value was 0.0614. For the same variant, the “area with substrate ENLYMQS” value was 0.0758, the “area with substrate ENLYQQS” value was 0.0683 and the “area with substrate ENLYSQS” value was 0.0607. The “area with substrate ENLYVQS” value was 0.0977 and the “area with substrate ENLYWQS” value was 0.0637. With MGESLFKGPRDYNPISSSICHLTNESDGHTTSLYGIGFGPFIITNKHLFRRNNGTLVVQSLHGVFKVKDTTTLQQHLVDGRDMIIIRMPKDFPPFPQKLKFREPQREERICLVTTNFQTKSMSSMVSDTSCTFPSGDGIFWKHWIQTKDGQCGSPLVSTRDGFIVGIHSASNFTNTNNYFTSVPKNFMELLTNQEAQQSVSGWRLNADSVLWGGHKVFMVKPEEPFQPVKEATQL [W199S] the “area with substrate ENLYEQS” value was 0.0428, the “area with substrate ENLYGQS” value was 0.0575 and the “area with substrate ENLYIQS” value was 0.0803. The “area with substrate ENLYKQS” value was 0.0453, the “area with substrate ENLYPQS” value was 0.0748 and the “area with substrate ENLYSQS” value was 0.075. For the same variant, the “area with substrate ENLYVQS” value was 0.0638. For MGESLFKGPRDYNPISSSICHLTNESDGHTTSLYGIGFGPFIITNKHLFRRNNGTLVVQSLHGVFKVKDTTTLQQHLVDGRDMIIIRMPKDFPPFPQKLKFREPQREERICLVTTNFQTKSMSSMVSDTSCTFPSGDGIFWKHWIQTKDGQCGSPLVSTRDGFIVGIHSASNFTNTNNYFTSVPKNFMELLTNQEAQQWVQGWRLNADSVLWGGHKVFMVKPEEPFQPVKEATQL [S201Q], the “area with substrate ENLYEQS” value was 0.0637, the “area with substrate ENLYGQS” value was 0.12 and the “area with substrate ENLYHQS” value was 0.062. For the same variant, the “area with substrate ENLYKQS” value was 0.0571, the “area with substrate ENLYMQS” value was 0.0714 and the “area with substrate ENLYVQS” value was 0.124. For the same variant, the “area with substrate ENLYWQS” value was 0.108. In the case of MGESLFKGPRDYNPISSSICHLTNESDGHTTSLYGIGFGPFIITNKHLFRRNNGTLVVQSLHGVFKVKDTTTLQQHLVDGRDMIIIRMPKDFPPFPQKLKFREPQREERICLVTTNFQTKSMSSMVSDTSCTFPSGDGIFWKHWIQTKDGQCGSPLVSTRDGFIVGIHSASNFTNTNNYFTSVPKNFMELLTNQEAQQWVSIWRLNADSVLWGGHKVFMVKPEEPFQPVKEATQL [G202I], the “area with substrate ENLYEQS” value is reported as 0.051, the “area with substrate ENLYGQS” value is reported as 0.0582 and the “area with substrate ENLYIQS” value is reported as 0.053. For the same variant, the “area with substrate ENLYKQS” value was 0.0555, the “area with substrate ENLYMQS” value was 0.0396 and the “area with substrate ENLYQQS” value was 0.0616. For the same variant, the “area with substrate ENLYRQS” value was 0.0484, the “area with substrate ENLYVQS” value was 0.0598 and the “area with substrate ENLYWQS” value was 0.0543. For MGESLFKGPRDYNPISSSICHLTNESDGHTTSLYGIGFGPFIITNKHLFRRNNGTLVVQSLHGVFKVKDTTTLQQHLVDGRDMIIIRMPKDFPPFPQKLKFREPQREERICLVTTNFQTKSMSSMVSDTSCTFPSGDGIFWKHWIQTKDGQCGSPLVSTRDGFIVGIHSASNFTNTNNYFTSVPKNFMELLTNQEAQQWVSGWRLNADKVLWGGHKVFMVKPEEPFQPVKEATQL [S209K], the “area with substrate ENLYEQS” value was 0.0198, the “area with substrate ENLYGQS” value was 0.0618 and the “area with substrate ENLYHQS” value was 0.0573. For the same variant, the “area with substrate ENLYMQS” value was 0.0714, the “area with substrate ENLYRQS” value was 0.0647 and the “area with substrate ENLYVQS” value was 0.0785. For MGESLFKGPRDYNPISSSICHLTNESDGHTTSLYGIGFGPFIITNKHLFRRNNGTLVVQSLHGVFKVKDTTTLQQHLVDGRDMIIIRMPKDFPPFPQKLKFREPQREERICLVTTNFQTKSMSSMVSDTSCTFPSGDGIFWKHWIQTKDGQCGSPLVSTRDGFIVGIHSASNFTNTNNYFTSVPKNFMELLTNQEAQQWVSGWRLNADRVLWGGHKVFMVKPEEPFQPVKEATQL [S209R], the “area with substrate ENLYEQS” value was 0.0592, the “area with substrate ENLYMQS” value was 0.0752 and the “area with substrate ENLYNQS” value was 0.0825. For the same variant, the “area with substrate ENLYPQS” value was 0.0386, the “area with substrate ENLYQQS” value was 0.0689 and the “area with substrate ENLYSQS” value was 0.0354. For the same variant, the “area with substrate ENLYWQS” value was 0.0823.
